PubChem BioAssay AID2101 (National Center for Advancing Translational Sciences (NCATS), 2009)
In all, about 330,000 compounds went through this assay and about 300 (0.091%) were called active. This list was built around the results that the source calls inconclusive (neither active nor inactive); the mix of calls is not that of the screen. Calls come from the whole dose curve; as a rule, active = well fitted inhibition curve with a large enough effect; inconclusive = small, poorly fitted or top-dose-only effect, or effect the other way, or another doubt; inactive = no such curve, though single readings can be large or run the other way. No potency is given beside an inconclusive call; the fits are too rough.

target: Lysosomal acid glucosylceramidase (Homo sapiens) (UniProt P04062); test: qHTS Assay for Inhibitors and Activators of N370S glucocerebrosidase as a Potential Chaperone Treatment of Gaucher Disease; conditions: N370S GC spleen homogenate, 4MU-glucoside fluorescence; activity change, negative = inhibition: at 59.4 µM (top of the series) unless noted;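 for activity change, negative = inhibition: 0% = full enzyme activity and -100% = no enzyme basal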
Potency is the fitted concentration of half-maximal effect.

Structure (SMILES) | Potency | activity change, negative = inhibition
Cc1cc2nn(-c3ccc(Cl)cc3)nc2cc1N | inconclusive [activator, partial curve] | –
O=C(Nc1cccc(Cl)c1)c1csc(-c2ccccc2)n1 | – | inactive: 16.3%
COc1ccc(S(=O)(=O)N2CCc3ccccc32)cc1C(=O)NCc1ccco1 | inconclusive [activator, single point] | –
Cc1cc2ccccn2c1C(=O)c1cccc([N+](=O)[O-])c1 | inconclusive [activator, partial curve] | –
COc1ccc(C2NC(=S)NC3=C2N2CCC3CC2)cc1 (stereo not drawn) | – | inactive: -6.46%
CC(C)(C)C(=O)Oc1ccc2cc(-c3ccc4ccccc4n3)c(=O)oc2c1 | – | inactive: -13.9%
COc1ccc(N(CC(=O)N/N=C/c2cccc3c2OCCO3)S(=O)(=O)c2ccc(NC(C)=O)cc2)cc1 | inconclusive [inhibitor, partial curve, poor fit] | –
CCOC(=O)c1c(NC(=O)CN2CCCc3ccccc32)sc(C)c1C | inconclusive [activator, single point] | –
CCCn1c(SCC(=O)Nc2nnc(-c3ccccc3)s2)nnc1-c1ccccn1 | inconclusive [activator, partial curve] | –
O=C(Nc1ccccc1)C1=C[C@@H](c2ccc(Br)cc2)C[C@@H](OCc2ccc(CO)cc2)O1 | inconclusive [activator, partial curve] | –
COc1cccc(/C=C2\Oc3ccc(O)cc3C2=O)c1O | inconclusive [inhibitor, partial curve] | –
CC(C)CCNC(=O)c1ccc(-c2ccccc2)cc1 | – | inactive: 11.5%
CCc1ccc(NC(=O)C(=S)NC2CCCCC2)cc1 | – | inactive: 12.2%
CCC(=C(c1ccc(OC)cc1)c1ccc(OC)cc1)c1cn(CC(O)CN(CCO)CCO)c2ccccc12 (stereo not drawn) | inconclusive [inhibitor, partial curve] | –
Cc1cc(=O)oc2c3c(cc(OCC(=O)NCC(=O)O)c12)OC(C)(C)CC3 | inconclusive [activator, single point] | –
O=C(COc1ccc2c(-c3ccccc3)cc(=O)oc2c1)Nc1ccc(CN2CCOCC2)cc1 | inconclusive [activator, single point] | –
O=C(NCCc1csc(-c2ccccc2)n1)c1c(F)cccc1F | – | inactive: 8.69%
COC(=O)c1c(NC(=O)c2ccc(C)cc2)csc1C | inconclusive [activator, single point] | –
CC(=O)OC1CC(C)OC(C)O1 (stereo not drawn) | – | inactive: 14.6%
COC(=O)c1ccc2c(=O)[nH]c(CN3c4ccccc4CC3C)nc2c1 (stereo not drawn) | inconclusive [inhibitor, single point] | –
O=C(O)C1CC=CCC1C(=O)NC1CCCCC1 (stereo not drawn) | inconclusive [activator, single point] | –
C/C(NC(=O)c1cccc(F)c1)=C1/C(=O)C[C@@H]2[C@H]1C2(C)C | inconclusive [activator, partial curve] | –
O=C(CSc1nc2ccccc2c(=O)n1Cc1ccco1)c1ccccc1 | inconclusive [activator, partial curve] | –

Structure (SMILES) | Potency | activity change, negative = inhibition
CN1CCN(c2ncc3nc(-c4cccc(C#N)c4)c(=O)n(Cc4ccc(F)cc4)c3n2)CC1 | – | inactive: -12.4%
O=C(N/N=C/c1c[nH]c2ccccc12)C1CC1c1ccccc1 (stereo not drawn) | inconclusive [activator, partial curve] | –
CC(C)CCNC(=O)c1cc(-c2ccco2)nc2ccccc12 | inconclusive [activator, partial curve, poor fit] | –
CCc1cccc(CC)c1NC(=O)c1cc(CN2C(=O)c3ccccc3C2=O)ccc1OC | inconclusive [activator, full curve] | –
COc1ccc(-c2cc(C(=O)N3CCCCCC3)c3cc(C)ccc3n2)cc1 | inconclusive [activator, partial curve] | –
CSc1ccccc1OCc1cc(C(=O)NC2CCOC(C)(C)C2)no1 (stereo not drawn) | – | inactive: -4.17%
CN1CCN(C(=S)c2ccc(-c3cccc(Cl)c3Cl)o2)CC1 | inconclusive [inhibitor, partial curve] | –
COc1ccc(-c2csc(N)n2)cc1 | – | inactive: -3.96%
c1ccc(-c2noc(-c3cccc4ccccc34)n2)cc1 | – | inactive: 9.48%
Nc1ccc(-c2nc3ccc(-c4nc5ccccc5o4)cc3[nH]2)cc1 | inconclusive [activator, partial curve] | –
CCN(CC(=O)NCc1ccc(F)cc1)C(=O)/C=C/c1cc(OC)ccc1OC | inconclusive [activator, partial curve] | –
CC(C)(C)OC(=O)N1CCC(C(=O)N[C@@H](Cc2c[nH]c3ccccc23)C(=O)O)CC1 | inconclusive [inhibitor, full curve, poor fit] | –
Cc1cccc2c1NC(=O)C2(c1ccc(O)cc1)c1ccc(O)cc1 | – | inactive: -14.7%
COCCn1c(-c2cccs2)nc2nc3ccccc3nc21 | inconclusive [activator, partial curve] | –
O=C(NNC(=S)Nc1ccc(Br)cc1)c1cccnc1 | – | inactive: -5.1%
CCCCCN(C(=O)CCC(=O)OCc1cccc(C(F)(F)F)c1)c1c(N)n(CCCC)c(=O)[nH]c1=O | inconclusive [activator, single point] | –
CCOc1cc([N+](=O)[O-])cc2c1C(=O)Nc1ccccc1O2 | inconclusive [activator, partial curve] | –
CCN1c2ccccc2-c2nc3ccccc3n2C1c1cccs1 (stereo not drawn) | inconclusive [activator, partial curve] | –
CN(C)c1ccc(N2CN=C3SCC(=O)N3C2)cc1 | inconclusive [inhibitor, single point] | –
COc1ccc(-c2noc(-c3ccccc3C(=O)NCc3ccco3)n2)cc1 | – | inactive: -3.48%
Cc1cccc(-c2ccc3ncnc(N(C)Cc4ccco4)c3c2)c1 | – | inactive: 1.55%
Oc1ccc(N2CCN(C(c3cccnc3)c3nnnn3Cc3ccccc3)CC2)cc1 (stereo not drawn) | inconclusive [inhibitor, single point] | –
FC(F)(F)c1nc(N2CCCC2)ncc1-c1nnnn1-c1ccc(Cl)cc1 | inconclusive [activator, partial curve] | –

Structure (SMILES) | Potency | activity change, negative = inhibition
Cc1ccc(CN(CC(O)COc2cccc3[nH]cc(C)c23)C(C)(C)C)cc1 (stereo not drawn) | inconclusive [inhibitor, full curve, poor fit] | –
NC(=O)[C@H](Cc1cc2ccccc2s1)NC(=O)[C@@H]1CC2(CC(c3cccc(NC(=O)[C@@H]4CCC(=O)N4)c3)=NO2)CN1C(=O)c1ccccc1 (stereo partly drawn) | inconclusive [inhibitor, full curve, poor fit] | –
COc1ccc(S(=O)(=O)n2ccc(-c3cnc(-c4ccccc4)s3)n2)cc1 | – | inactive: -1.45%
Cc1cccc(OCC(=O)N/N=C/c2cc([N+](=O)[O-])ccc2N2CCOCC2)c1 | inconclusive [inhibitor, partial curve] | –
Cc1cc(NCc2ccccc2)n2ncc(-c3ccccc3)c2n1 | inconclusive [activator, single point] | –
COCCCNC(=S)N(CCCN(C)C)Cc1cc2cc3c(cc2[nH]c1=O)OCCO3 | inconclusive [activator, single point] | –
Cc1c(NC(=O)c2cc(-c3ccco3)on2)c(=O)n(-c2ccccc2)n1C | – | inactive: -26.2%
CC1CCCN(C(=S)NCCc2ccccc2)C1 (stereo not drawn) | – | inactive: 0.321%
Nc1nc(-c2ccc(-c3ccccc3)cc2)cs1 | – | inactive: 6.11%
CCn1nc(C)cc1Nc1ccccc1 | inconclusive [inhibitor, single point] | –
COc1ccccc1OCC(=O)Nc1sc2c(c1C(=O)NCC1CCCO1)CCC2 (stereo not drawn) | inconclusive [activator, partial curve] | –
CC(/C=N/n1c(-c2ccco2)n[nH]c1=S)=C\c1ccccc1 | inconclusive [activator, partial curve] | –
Cc1ccc(SCCNC(=S)Nc2cc(C)cc(C)c2)cc1 | inconclusive [activator, partial curve] | –
CC12CC3CC(C)(C1)CC(CN)(C3)C2 | inconclusive [inhibitor, single point] | –
CCCc1cc(=O)oc2c3c(cc(OCC(=O)NCc4ccncc4)c12)OC(C)(C)CC3 | inconclusive [activator, single point] | –
NCC/C=C1/c2ccccc2CSc2ccccc21 | inconclusive [inhibitor, partial curve] | –
CCOc1ccc(NC(=O)C(c2ccccn2)N(C(=O)CCl)c2ccc(F)cc2)cc1 (stereo not drawn) | inconclusive [inhibitor, single point] | –
O=C(COc1ccccc1O)Nc1ccc(Cl)cc1 | inconclusive [activator, partial curve, poor fit] | –
CC(=O)N/C(=N/c1nc(C)cc(C)n1)Nc1cccc(C)c1C | inconclusive [inhibitor, partial curve] | –
N#Cc1c(-c2ccccc2)nc(SCc2cccc(Cl)c2)[nH]c1=O | inconclusive [activator, single point] | –
C=CCn1c(CNc2ccccc2)nnc1SCC(=O)N/N=C/c1ccccc1O | inconclusive [inhibitor, single point] | –
CCOC(=O)c1c(NC(=O)COC(=O)Cn2cnc3ccccc32)sc2c1CCC(C)C2 (stereo not drawn) | inconclusive [inhibitor, partial curve] | –
